The other results are listed elsewhere or left out.
Assays:
Experiment in all cases: glycan array binding signal (z-score within array); higher = stronger binding
Conditions in all cases: glycan notation: IUPAC condensed, linker removed
[1] = target: GalNAc(b1-4)GlcNAc(b1-2)Man
Method in brief: (§1)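 The binding signal is a Z-score computed within each array and averaged over linkers. Arrays of the same protein sequence at different concentrations or buffers were also averaged together. Data originate from 3228 arrays in the Consortium for Functional Glycomics database, kept only where the protein sequence was available.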

[2] = target: GalNAc(b1-4)GlcNAc(b1-2)Man(a1-3)[GalNAc(b1-4)GlcNAc(b1-2)Man(a1-6)]Man(b1-4)GlcNAc(b1-4)GlcNAc
Method in brief: as §1

[3] = target: GalNAc(b1-4)GlcNAc(b1-3)GalNAc(b1-4)GlcNAc
Method in brief: as §1

GalNAc(b1-4)GlcNAc6S = target: GalNAc(b1-4)GlcNAc6S
Method in brief: as §1

GalNAc(b1-6)GalNAc = target: GalNAc(b1-6)GalNAc
Method in brief: as §1

GalNAc3S(b1-4)GlcNAc = target: GalNAc3S(b1-4)GlcNAc
Method in brief: as §1

GalNAc3S(b1-4)GlcNAc3S = target: GalNAc3S(b1-4)GlcNAc3S
Method in brief: as §1

[4] = target: GalNAc3S(b1-4)[Fuc(a1-3)]GlcNAc
Method in brief: as §1

GalNAc4S6S(b1-4)GlcNAc = target: GalNAc4S6S(b1-4)GlcNAc
Method in brief: as §1

GalNAc6S(b1-4)GlcNAc = target: GalNAc6S(b1-4)GlcNAc
Method in brief: as §1

Glc(a1-4)Glc = target: Glc(a1-4)Glc
Method in brief: as §1

[5] = target: Glc(a1-4)Glc(a1-4)Glc(a1-4)Glc
Method in brief: as §1

Glc(a1-6)Glc(a1-6)Glc = target: Glc(a1-6)Glc(a1-6)Glc
Method in brief: as §1

[6] = target: Glc(a1-6)Glc(a1-6)Glc(a1-6)Glc
Method in brief: as §1

Glc(b1-4)Glc = target: Glc(b1-4)Glc
Method in brief: as §1

Glc(b1-6)Glc = target: Glc(b1-6)Glc
Method in brief: as §1

GlcA(b1-3)Gal = target: GlcA(b1-3)Gal
Method in brief: as §1

GlcA(b1-3)GlcNAc = target: GlcA(b1-3)GlcNAc
Method in brief: as §1

GlcA(b1-6)Gal = target: GlcA(b1-6)Gal
Method in brief: as §1

[7] = target: GlcA3S(b1-3)Gal(b1-4)GlcNAc(b1-2)Man
Method in brief: as §1

[8] = target: GlcA3S(b1-3)Gal(b1-4)GlcNAc(b1-3)Gal(b1-4)Glc
Method in brief: as §1

[9] = target: GlcNAc(a1-3)Gal(b1-4)GlcNAc
Method in brief: as §1

[10] = target: GlcNAc(a1-4)Gal(b1-3)GlcNAc
Method in brief: as §1

[11] = target: GlcNAc(a1-4)Gal(b1-4)GalNAc
Method in brief: as §1

[12] = target: GlcNAc(a1-4)Gal(b1-4)GlcNAc
Method in brief: as §1

[13] = target: GlcNAc(a1-4)Gal(b1-4)GlcNAc(b1-3)Gal(b1-4)Glc
Method in brief: as §1

[14] = target: GlcNAc(a1-4)Gal(b1-4)GlcNAc(b1-3)Gal(b1-4)GlcNAc
Method in brief: as §1

[15] = target: GlcNAc(a1-4)Gal(b1-4)GlcNAc(b1-3)Gal(b1-4)GlcNAc(b1-3)Gal(b1-4)GlcNAc
Method in brief: as §1

[16] = target: GlcNAc(a1-4)Gal(b1-4)GlcNAc(b1-3)Gal(b1-4)[Fuc(a1-3)]GlcNAc(b1-3)Gal(b1-4)[Fuc(a1-3)]GlcNAc
Method in brief: as §1

[17] = target: GlcNAc(a1-6)Gal(b1-4)GlcNAc
Method in brief: as §1

B1: Pa IMPa (Pseudomonas aeruginosa), Q9I5W4 (protein)
chain: MSLSTTAFPSLQGENMSRSPIPRHRALLAGFCLAGALSAQAATQEEILDAALVSGDSSQLTDSHLVALRLQQQVERIRQTRTQLLDGLYQNLSQAYDPGAASMWVLPANPDNTLPFLIGDKGRVLASLSLEAGGRGLAYGTNVLTQLSGTNAAHAPLLKRAVQWLVNGDPGAATAKDFKVSVVGVDKTAALNGLKSAGLQPADAACNALTDASCASTSKLLVLGNGASAASLSATVRARLQAGLPILFVHTNGWNQSSTGQQILAGLGLQEGPYGGNYWDKDRVPSSRTRTRSVELGGAYGQDPALVQQIVDGSWRTDYDWSKCTSYVGRTTCDDVPGLSDFSKRVDVLKGALDAYNQKAQNLFALPGTTSLRLWLLWADAVRQNIRYPMDKAADTARFQETFVADAIVGYVREAGAAQKELGSYAGQRQQSMPVSGSEETLTLTLPSAQGFTAIGRMAAPGKRLSIRIEDAGQASLAVGLNTQRIGSTRLWNTRQYDRPRFLKSPDIKLQANQSVALVSPYGGLLQLVYSGATPGQTVTVKVTGAASQPFLDIQPGEDSSQAIADFIQALDADKADWLEIRSGSVEVHAKVEKVRGSIDKDYGGDVQRFIRELNEVFIDDAYTLAGFAIPNQAKTPAIQQECAARGWDCDSETLHKLPGTQHINVDQYAQCGGGCSGNPYDQTWGLNPRGWGESHELGHNLQVNRLKVYGGRSGEISNQIFPLHKDWRVLREFGQNLDDTRVNYRNAYNLIVAGRAEADPLAGVYKRLWEDPGTYALNGERMAFYTQWVHYWADLKNDPLQGWDIWTLLYLHQRQVDKSDWDANKAALGYGTYAQRPGNSGDASSTDGNDNLLLGLSWLTQRDQRPTFALWGIRTSAAAQAQVAAYGFAEQPAFFYANNRTNEYSTVKLLDMSQGSPAWPFP
- glycan array binding signal (z-score) [1]: 0.357
- glycan array binding signal (z-score) [2]: -0.382
- glycan array binding signal (z-score) [3]: -0.197
- glycan array binding signal (z-score) (GalNAc(b1-4)GlcNAc6S): -0.239
- glycan array binding signal (z-score) (GalNAc(b1-6)GalNAc): -0.401
- glycan array binding signal (z-score) (GalNAc3S(b1-4)GlcNAc): -0.398
- glycan array binding signal (z-score) (GalNAc3S(b1-4)GlcNAc3S): 0.008
- glycan array binding signal (z-score) [4]: -0.267
- glycan array binding signal (z-score) (GalNAc4S6S(b1-4)GlcNAc): 1.48
- glycan array binding signal (z-score) (GalNAc6S(b1-4)GlcNAc): -0.463
- glycan array binding signal (z-score) (Glc(a1-4)Glc): -0.441
- glycan array binding signal (z-score) [5]: 0.634
- glycan array binding signal (z-score) (Glc(a1-6)Glc(a1-6)Glc): -0.304
- glycan array binding signal (z-score) [6]: 0.853
- glycan array binding signal (z-score) (Glc(b1-4)Glc): -0.058
- glycan array binding signal (z-score) (Glc(b1-6)Glc): -0.442
- glycan array binding signal (z-score) (GlcA(b1-3)Gal): -0.387
- glycan array binding signal (z-score) (GlcA(b1-3)GlcNAc): -0.276
- glycan array binding signal (z-score) (GlcA(b1-6)Gal): -0.196
- glycan array binding signal (z-score) [7]: 0.072
- glycan array binding signal (z-score) [8]: 0.054
- glycan array binding signal (z-score) [9]: 0.061
- glycan array binding signal (z-score) [10]: -0.128
- glycan array binding signal (z-score) [11]: 0.088
- glycan array binding signal (z-score) [12]: 3.49
- glycan array binding signal (z-score) [13]: 0.308
- glycan array binding signal (z-score) [14]: -0.321
- glycan array binding signal (z-score) [15]: -0.003
- glycan array binding signal (z-score) [16]: 0.66
- glycan array binding signal (z-score) [17]: -0.364

Reference: the supplement of paper PMC8728848
